From the supplement of paper PMC11417369 come the findings set out here.

This is one part of the list.

This assay concerns PfAP2-HC AP2 domain (GST-tagged). In words: gcPBM binding intensity (ln(normalized median fluorescence intensity)); higher = stronger DNA binding. An outline of the steps:
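For binding intensity, the highest Masliner-normalised natural-log median intensity across replicate spots of either probe orientation was taken. Protein bound to the array was stained with Alexa488 anti-GST antibody and scanned at 488 nm. The protein, GST-tagged P. falciparum DNA-binding domains from E. coli at about 25 μg on average, had been applied for 1 h to an Agilent 4 × 180k array of primer-extended double-stranded 36-bp intergenic genomic probes and negative controls.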
Take “TGTGTTAAATGTAATAGTGAATAAATAATTTTAACA [TGCATGCA_negctrl_site161]”: the “gcPBM binding intensity (ln)” value turned out to be 9.6.

For the sequence “AAAATGAATATAATGACGCACACTTAAAATTGTTAA [CACACA_site2509]”, the “gcPBM binding intensity (ln)” value was determined as 9.78.

In the case of “TTTTTTAGAAAAAGTTGTACTTTTTTTTTTTTTTTT [XGTACX_site535]”, the “gcPBM binding intensity (ln)” value is 9.27.

Consider ATATATATAATATAGGTGCACTACTTATTTAAAAAA, for which the “gcPBM binding intensity (ln)” value came out at 9.75.

On to “TAAAAATGTAGACACACACACATATATATATTTAAT [CACACA_site1528]”, for which the “gcPBM binding intensity (ln)” value came to 10.7.

Take “AAATAATTAGCTATTTGTACATATATACATATTTAT [XGTACX_site4652]”: the “gcPBM binding intensity (ln)” value was 9.84.

With “TTAATAACAAAATAAACACACATATATAAATCCACA [CACACA_site1590]”, the “gcPBM binding intensity (ln)” value turned out to be 10.1.

Regarding “ACTACCTATATTTAAGCATGCAAAAAATAAAAATAT [TGCATGCA_site238]”, the “gcPBM binding intensity (ln)” value is 9.67.

Regarding “AATATTATTATTATTACACACACAATTATATTTACC [CACACA_site8061]”, the “gcPBM binding intensity (ln)” value amounted to 10.2.

For “ATATTTTAAATGTTATGTACACATTTGTTGTTTACA [XGTACX_site7353]”, the “gcPBM binding intensity (ln)” value was found to be 9.69.

In the case of “ATTTTTTTTTTTATTTTCTTTGAGATTATCTTAATT [CACACA_negctrl_site1209]”, the “gcPBM binding intensity (ln)” value worked out at 9.54.

Take “TTAATTTGTTCTTACACACACATATATATATATTTA [CACACA_site1185]”: the “gcPBM binding intensity (ln)” value was 10.1.

As for “TATATATATACATAATGTACATTTTATAAATTTACA [XGTACX_site5283]”, the “gcPBM binding intensity (ln)” value was 9.61.

In the case of “AAAAAAAAAAAAAAAATACACACGTGAATGTATTGT [CACACA_site1320]”, the “gcPBM binding intensity (ln)” value was 9.86.

Turning to “AAATAACACATATATACACACATATAAATATAATAT [CACACA_site2692]”, the “gcPBM binding intensity (ln)” value is 10.3.

Take “ATAGGACCTATGTGCCCATGGGTACATTAAAAAAAA [CACACA_negctrl_site1465]”: the “gcPBM binding intensity (ln)” value was determined as 9.47.

Regarding “AAAAAACTTATAATCACACATATGATTAAATATTAA [CACACA_site4956]”, the “gcPBM binding intensity (ln)” value is 9.66.

As for “TTGAATGTAGTTAAATGTACATGTAATATATAAAAA [XGTACX_site1250]”, the “gcPBM binding intensity (ln)” value worked out at 9.73.

With “AATTATTTTTTGTATGAACACACAACTTAATTATGA [CACACA_site8774]”, the “gcPBM binding intensity (ln)” value was 9.78.

As for “TTTGTTTTAAATCGAAGTACACATAATTATATTTTA [XGTACX_site1541]”, the “gcPBM binding intensity (ln)” value amounted to 9.46.

Turning to “ATACAACATATATATACACACATATAATAATAATAA [CACACA_site3367]”, the “gcPBM binding intensity (ln)” value came to 10.3.

Regarding “AAACCAATAAAAAACTGTACAAAAATTATATGAGAT [XGTACX_site1269]”, the “gcPBM binding intensity (ln)” value worked out at 10.1.

With “GAATAAAAAATATATGTGCACATATAAACTTAAAAT [GTGCAC_site9554]”, the “gcPBM binding intensity (ln)” value was 10.1.

For “TAATATAAAGGAAAAGAAAAGAAAAGAATATACAAT [CACACA_negctrl_site1369]”, the “gcPBM binding intensity (ln)” value came to 9.69.

Turning to “AATAAATTATTTATTGCATGTAATATGAATATTTTT [TGCATGCA_site798]”, the “gcPBM binding intensity (ln)” value was 9.51.

For the sequence “TAATGTATGAAATAAACACACAAGTAAGTACATAAA [CACACA_site2451]”, the “gcPBM binding intensity (ln)” value came to 9.95.

Consider “ATATATTTTATTCCTATATATATATATATATATATA [GTGCAC_negctrl_site556]”, for which the “gcPBM binding intensity (ln)” value was 9.7.

As for “CATTATGTCATAAATGCACACATATACATTGTTTTG [CACACA_site8118]”, the “gcPBM binding intensity (ln)” value came to 9.95.

Take “AGAAAAAAAATATACACACATACGATCATACATATG [CACACA_site2171]”: the “gcPBM binding intensity (ln)” value was determined as 9.99.

Turning to “TACATAGAGTTTGTTTGTACTCATATGCGTAAATTC [XGTACX_site4810]”, the “gcPBM binding intensity (ln)” value came out at 9.55.

In the case of “ACCTCTTTGAAATATACACACTAAACATATCAACTT [CACACA_site5372]”, the “gcPBM binding intensity (ln)” value worked out at 9.97.

Consider “TCTGTAGTTTTTTACAGTACTTTTAGGTAATACATA [XGTACX_site7417]”, for which the “gcPBM binding intensity (ln)” value was determined as 9.53.

Take “AAAACACCCAAACACACACACACATATATATATATA [CACACA_site9119]”: the “gcPBM binding intensity (ln)” value was 10.8.

For “TTCTTGTATTTTCATAGTACATATAATGTCGTGTTA [XGTACX_site7714]”, the “gcPBM binding intensity (ln)” value is 9.8.

Consider “TTTCTTTTTTTTTTTTTTTCTGGCTTTTTCTCTTTT [TGCATGCA_negctrl_site599]”, for which the “gcPBM binding intensity (ln)” value is 9.57.

Consider “TTTTTATTTTTTTTATGTACACAAATGATATACATA [XGTACX_site5910]”, for which the “gcPBM binding intensity (ln)” value was 9.64.

With “AGGATACACGGACACACACACATATAGATTTATATA [CACACA_site6552]”, the “gcPBM binding intensity (ln)” value is 10.6.

On to “ATTATTTTTCTATGTGTGCACGTGTGGAATGTGTCT [GTGCAC_site9507]”, for which the “gcPBM binding intensity (ln)” value was 10.

For the sequence “TTCTGAACAAAATTATATATTTATTTTTATTTTCAT [CACACA_negctrl_site422]”, the “gcPBM binding intensity (ln)” value was 9.7.

As to “TATATTACTTAAAATACACACCATGGAAAAGTTTTA [CACACA_site5443]”, the “gcPBM binding intensity (ln)” value is 9.69.

In the case of “ATTACATGTTACTTAACACACATCTGGTGAAATAAT [CACACA_site171]”, the “gcPBM binding intensity (ln)” value is 9.74.

Regarding “TTAATTAAAATTTATACATGCATAAAAGAAATACAC [TGCATGCA_site537]”, the “gcPBM binding intensity (ln)” value came out at 9.75.

Take “ATTTTTTTCTTTTCTTTTTTCTTTTTTTTTTTTGGT [CACACA_negctrl_site1146]”: the “gcPBM binding intensity (ln)” value is 9.59.

As to “GTAATGAAACATTGCACACATATAATAATATAATAT [CACACA_site1422]”, the “gcPBM binding intensity (ln)” value came to 9.84.

Turning to “ATAAGATGATGGAACTGTAATATATATATATATATA [CACACA_negctrl_site839]”, the “gcPBM binding intensity (ln)” value was found to be 9.61.

Turning to “TTTAAGAGTTGCACACGTACAAAAAAAAAAAAAAAA [XGTACX_site7406]”, the “gcPBM binding intensity (ln)” value was 9.47.

In the case of “TTGTATACATAAAATGGTACAGAATATATAATTCTA [XGTACX_site7236]”, the “gcPBM binding intensity (ln)” value was found to be 9.45.

For “GTATACCAACATATTATACACACCTTTATATTTTTT [CACACA_site2153]”, the “gcPBM binding intensity (ln)” value worked out at 10.

Regarding “TGCAACAAAATAAACACACACACACCCCCACAAAAA [CACACA_site3388]”, the “gcPBM binding intensity (ln)” value came to 10.6.

Regarding “AATAAAAAAATAAAATGTACATACAAATAAATAAAT [XGTACX_site5153]”, the “gcPBM binding intensity (ln)” value was determined as 9.9.

For “TATTTTAATGAAGCATTTAAGGGAAAAAAAAAAAAA [TGCATGCA_negctrl_site606]”, the “gcPBM binding intensity (ln)” value amounted to 9.25.

As to “TTATACTGTTTCAGAAAAATAAAGAATGAAAGTATT [XGTACX_negctrl_site230]”, the “gcPBM binding intensity (ln)” value amounted to 9.55.

Take “TTTTTATATTCCCCCAGTACATATATAATAGTAGTA [XGTACX_site7927]”: the “gcPBM binding intensity (ln)” value came out at 9.65.

As to “AAGTAATACAACACGCACATATATATATATATATAT [GTGCAC_negctrl_site89]”, the “gcPBM binding intensity (ln)” value came to 10.

In the case of “TTATAGCCTGTGAAGAGTACATTTTTATTTTTTATT [XGTACX_site4105]”, the “gcPBM binding intensity (ln)” value is 9.59.

As to “TACCTAAATAAATGGACACACACATATATATATATA [CACACA_site8407]”, the “gcPBM binding intensity (ln)” value is 10.1.
